In PubChem BioAssay AID1963576 (National Center for Advancing Translational Sciences (NCATS), 2024):
Screen size: about 46,000 compounds; about 60 (0.1%) were called active. Not shown: some 3% with an inconclusive outcome. The call rests on the fitted dose curve; in most records, active means well fitted inhibition curve with a large enough effect; inconclusive means small, poorly fitted or top-dose-only effect; inactive means no such curve, though single readings can be large or run the other way. The list shows a part of the results.

Test: Primary qHTS assay for Inhibitors of ovarian cancer metastasis using an organotypic tumor microenvironment (TME) model. Further: nearly all actives have a fitted effect of over 65% in size.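 On activity change, negative = inhibition: plate controls were DMSO wells for no effect and tomatine positive control wells for full effect.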
Conditions: SKOV3ip1-GFP adhesion/invasion on 3D omental model, fluorescence; series mostly up to 45.8 µM; activity change, negative = inhibition: at the top concentration
Method in brief: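 A 3D layer of primary human omental fibroblasts, mesothelial cells, fibronectin and collagen I, grown 48 hr, received SKOV3ip1-GFP cells in serum-free medium plus compounds at 0.36-46 umol/L. After 2 hr RT and 16 hr 37 C, fixed adherent GFP cells were counted; normalized to DMSO and tomatine.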

Activity change, negative = inhibition, inactive:
COc1cc(C(=O)NCC(c2cccs2)S(=O)(=O)c2cccs2)cc(OC)c1OC (centres undefined) -0.627%
O=C(CCn1c(=O)c2cccn2c2cccnc21)NCc1ccc(F)cc1 -0.181%
Fc1ccc(-c2noc3ncnc(NCc4ccc(Cl)cc4)c23)cc1 0.159%
CCC(Sc1nc(-c2ccccc2F)nc2c1Cc1c(CO)cnc(C)c1O2)C(=O)Nc1cc(C)ccc1C (centres undefined) 7.56%
Cc1ccccc1CN1CCC(CNC(=O)c2c(C)oc3ncnc(N4CCCCC4)c23)CC1 0.693%
COc1ccc(C(=O)NC2(C(F)(F)F)C(=O)Nc3c2c(=O)[nH]c(=O)n3CCc2ccc(OC)c(OC)c2)cc1 (centres undefined) 28.5%
CCOC(=O)C1CCN(S(=O)(=O)c2ccc3c(c2)N(C)C(=O)CC(=O)N3C)CC1 1.43%
COc1cc(C2CC(=O)Oc3c2c(=O)n(C)c2ccccc32)ccc1O (centres undefined) 4.7%
Cc1ccc(Cl)cc1N1CCN(C(=O)c2ccc(CS(=O)(=O)c3ccccc3C)o2)CC1 -18.3%
Cc1ccc(NC(=O)Cn2c(=O)n(CC3CCCO3)c(=O)c3ccccc32)cc1 (centres undefined) -9.85%
CCOC(=O)c1c(C)[nH]c(C)c1S(=O)(=O)N(C)CC(=O)Nc1ccc(C)cc1C 10.7%
O=C(COc1ccccc1)Nc1ccc2nc(SCCOc3ccccc3)sc2c1 5.04%
CC(=O)SCC(Cc1ccccc1)C(=O)NCC(=O)OCc1ccccc1 (centres undefined) 17.5%
Cn1nc(C(=O)Nc2ccc(F)c(Cl)c2)c2c1-c1ccccc1S(=O)(=O)C2 1.92%
CCOc1cc2[nH]c(=O)n(Cc3ccc(C(=O)N4CCN(c5cccc(Cl)c5)CC4)cc3)c(=O)c2cc1OCC -3.69%
COc1cc(C2NC(=O)c3c(sc4c3CCN(C)C4)N2)cc(OC)c1OC (centres undefined) 7.13%
CC(=O)CSc1nnc2[nH]c(=O)cc(N)n12 8.33%
Cc1cccc(-c2nnc(C3CCN(S(=O)(=O)c4cccc(Cl)c4)CC3)o2)c1 -3.19%
CCOC(=O)c1c(C)c(-c2ccccc2)n(CC(=O)NC2CCCCC2)c1C -6.98%
COc1ccc(Br)cc1CN1C(=O)c2ccccc2C1C(=O)NC1CCCCCC1 (centres undefined) -27%
O=C(Cn1c(=O)nc(-c2ccccc2)c2cc(Cl)ccc21)N1CCN(c2ccc(F)cc2)CC1 -1.47%
COCCNC(=O)c1cnc2sc(N3CCC(C)CC3)nn2c1=O -2.98%
CCN(C(=O)c1cnc2ccc(C)cn2c1=O)c1ccccc1 2.06%
COC(=O)C1=C(C)NC(C)=C(C(=O)OC(C)C)C1c1cccc2nonc12 (centres undefined) 21%
Cc1cccc(CNC(=O)CS(=O)(=O)c2cccc3nsnc23)c1 1.55%
COc1ccc(Cl)cc1NC(=O)c1nn(-c2ccc(C)cc2)c(=O)n(C)c1=O 6.02%
O=C(Nc1ccc2c(c1)CCCN2C(=O)c1cccs1)c1ccccc1Cl -6.6%
N#C[C@H]1C[C@H]2C[C@@H]2N1C(=O)[C@@H](N)C12CC3CC(CC(O)(C3)C1)C2 0.669%
CCc1ccc(NC(=O)C2CCN(c3nn4c(=O)cc(C)nc4s3)CC2)cc1 13.9%
CN1N=C(N)c2cn([C@@H]3O[C@H](COP(=O)(O)O)[C@@H](O)[C@@H]3O)c3ncnc1c23 2.26%
Cc1cc(C)cc(NS(=O)(=O)c2cc3c(cc2C)NC(=O)CO3)c1 -8.52%
CCCCn1cc2c(c1-c1ccc(Cl)cc1)c(=O)n(C)c(=O)n2C 7.14%
O=C(Nc1ccc(OC(F)(F)F)cc1)c1cc2ccccn2n1 7.54%
COc1cc(OC)c(Nc2nc3ccc(C(=O)c4ccccc4)cc3n3c(C)nnc23)cc1Cl 4.78%
Cc1cc(C)n(-c2nc3ccccc3nc2Nc2cccc(C)c2C)n1 -2.02%
CCC(Sc1nc2ccccc2c(=O)n1CCc1ccc(OC)c(OC)c1)C(=O)N(CC)CC (centres undefined) 3.73%
Cn1c(Nc2ccc(C(F)(F)F)cc2)nc2cc(Oc3ccnc(-c4ncc(C(F)(F)F)[nH]4)c3)ccc21 29%
COc1ccc(Cl)cc1NC(=O)c1sc2nc3n(c(=O)c2c1C)CCC3 -2.12%
COc1ccc(NC(=O)CSc2nnc(-c3nonc3NC(C)=O)n2-c2ccccc2)cc1 -2.05%
CCOC(=O)c1c(NC(=O)c2ccc(S(=O)(=O)N(CC(C)C)CC(C)C)cc2)sc2c1CCN(C(=O)OCC)C2 -0.119%
CCC(=O)N(CCC(c1ccccc1)c1ccc2c(c1)OCO2)Cc1ccc(OC(C)C)cc1 (centres undefined) -9.2%
CCc1ccc(CN(Cc2cn[nH]c2-c2ccc(OC)cc2)C(=O)Nc2cc(Cl)ccc2OC)cc1 1.7%
CCN(CC)C(=O)Cn1c(=O)n(Cc2ccc(C(=O)NCCc3ccc(OC)c(OC)c3)cc2)c(=O)c2ccccc21 5.82%
CCCCN(CCCNC(=O)c1cc(Nc2ccc(OC)c(OC)c2)nc2ccccc12)Cc1ccccc1 -0.471%
CCOC(=O)C1=C(C)N=C2SCCC(=O)N2C1c1ccc(OCc2ccccc2)cc1 (centres undefined) 5.64%

outcome, inactive:
CN(Cc1ccccc1)C(=O)c1ccc2c(c1)N(Cc1ccccc1Cl)C(=O)c1ccccc1S2
CCOc1ccc(CCNC(=O)C2=C(C)C(=O)OC23CCCCC3)cc1
CCN1C(=O)c2ccccc2S(=O)c2ccc(C(=O)N3CCN(c4cc(Cl)ccc4C)CC3)cc21 (centres undefined)
Cc1cc(C)c2oc(-c3cccc(NC(=O)COc4ccc([N+](=O)[O-])cc4)c3)nc2c1
CCc1ccc(CNC(=O)C2CCN(c3nn4cc(-c5ccc(F)cc5)nc4s3)CC2)cc1
CCOC(=O)C1CCN(C(c2cccc(F)c2)c2c(O)cc(C)n(CCOC)c2=O)CC1 (centres undefined)
COc1cc(NC(=O)Cn2cnc(S(=O)(=O)N3CCCC3)c2)cc(OC)c1OC
CCOC(=O)c1c(C)[nH]c(C)c1S(=O)(=O)N1CCCC(C(=O)N2CCN(c3cccc(C)c3C)CC2)C1 (centres undefined)
Clc1ccc(-c2noc3ncnc(NCCc4ccccc4)c23)cc1
O=c1nc2n(-c3ccccc3F)c3ccccc3cc-2c(=O)[nH]1
CCOc1ccc(CCNS(=O)(=O)c2cc(Br)cc3c2N(C(C)=O)CC3)cc1OCC
CCCN(C(=O)Cn1cnc2onc(-c3ccc(F)cc3)c2c1=O)c1cccc(Cl)c1
COC(=O)c1c(NC(=O)CCCOc2cccc(C)c2)sc2c1C(C(=O)OC)CC2 (centres undefined)
COc1ccc(S(=O)(=O)NCCc2csc(-c3ccc(F)cc3)n2)cc1F
